# Test results taken from the supplement of paper PMC12067093, “Discovery and optimisation of a covalent ligand for TRIM25 and its application to targeted protein ubiquitination” (Chemical Science, 2025).
# Of roughly 21,000 targets only a part is listed; those with the largest changes were picked by preference.
# Compound: CC1Cc2ccccc2N1C(=O)C1CCCN(C1)C(=O)CCl (mixture of isomers) [TRIM25 ligand 11 (diastereomer mixture)]
# Assay: probe-labelled cysteine peptide fold change vs DMSO (competition) (log2 fold change); higher = less target engagement (more negative = stronger competition)
# Settings: 10 µM; THP-1; incubation time: 4 h
# 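Further: competitive chemoproteomic profiling in live THP-1 cells with an iodoacetamide desthiobiotin (IA-DTB) probe, comparing probe-labelled peptide intensities in compound-treated cells against DMSO-treated controls.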
# UniProt P36776, sequence (P36776 whole entry, looked up): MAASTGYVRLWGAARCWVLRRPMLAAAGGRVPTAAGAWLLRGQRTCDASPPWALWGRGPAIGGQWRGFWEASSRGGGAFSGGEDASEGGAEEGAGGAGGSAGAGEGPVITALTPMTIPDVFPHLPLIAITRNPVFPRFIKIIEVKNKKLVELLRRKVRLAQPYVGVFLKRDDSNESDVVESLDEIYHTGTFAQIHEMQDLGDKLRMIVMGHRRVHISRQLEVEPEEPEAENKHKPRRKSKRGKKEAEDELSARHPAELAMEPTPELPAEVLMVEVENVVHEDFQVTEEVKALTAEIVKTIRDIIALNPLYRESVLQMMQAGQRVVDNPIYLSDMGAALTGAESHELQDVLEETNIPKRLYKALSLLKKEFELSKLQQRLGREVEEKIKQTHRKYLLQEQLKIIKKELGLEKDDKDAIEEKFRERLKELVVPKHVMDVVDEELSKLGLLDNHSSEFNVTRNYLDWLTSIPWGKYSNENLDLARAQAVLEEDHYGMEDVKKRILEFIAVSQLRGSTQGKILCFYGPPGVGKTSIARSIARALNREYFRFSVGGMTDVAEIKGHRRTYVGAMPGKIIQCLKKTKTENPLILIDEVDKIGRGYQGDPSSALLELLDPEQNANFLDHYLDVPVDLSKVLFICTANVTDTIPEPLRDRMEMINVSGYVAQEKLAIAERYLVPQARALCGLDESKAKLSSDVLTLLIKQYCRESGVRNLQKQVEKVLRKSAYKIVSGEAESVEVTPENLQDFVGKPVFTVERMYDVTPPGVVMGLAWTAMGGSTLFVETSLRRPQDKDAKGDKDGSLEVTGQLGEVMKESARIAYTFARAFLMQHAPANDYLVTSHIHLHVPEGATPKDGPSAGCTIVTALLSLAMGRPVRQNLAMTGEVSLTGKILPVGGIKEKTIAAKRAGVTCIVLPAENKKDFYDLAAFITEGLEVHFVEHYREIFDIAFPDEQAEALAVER
# UniProt Q9NVH2, sequence (Q9NVH2 whole entry, looked up): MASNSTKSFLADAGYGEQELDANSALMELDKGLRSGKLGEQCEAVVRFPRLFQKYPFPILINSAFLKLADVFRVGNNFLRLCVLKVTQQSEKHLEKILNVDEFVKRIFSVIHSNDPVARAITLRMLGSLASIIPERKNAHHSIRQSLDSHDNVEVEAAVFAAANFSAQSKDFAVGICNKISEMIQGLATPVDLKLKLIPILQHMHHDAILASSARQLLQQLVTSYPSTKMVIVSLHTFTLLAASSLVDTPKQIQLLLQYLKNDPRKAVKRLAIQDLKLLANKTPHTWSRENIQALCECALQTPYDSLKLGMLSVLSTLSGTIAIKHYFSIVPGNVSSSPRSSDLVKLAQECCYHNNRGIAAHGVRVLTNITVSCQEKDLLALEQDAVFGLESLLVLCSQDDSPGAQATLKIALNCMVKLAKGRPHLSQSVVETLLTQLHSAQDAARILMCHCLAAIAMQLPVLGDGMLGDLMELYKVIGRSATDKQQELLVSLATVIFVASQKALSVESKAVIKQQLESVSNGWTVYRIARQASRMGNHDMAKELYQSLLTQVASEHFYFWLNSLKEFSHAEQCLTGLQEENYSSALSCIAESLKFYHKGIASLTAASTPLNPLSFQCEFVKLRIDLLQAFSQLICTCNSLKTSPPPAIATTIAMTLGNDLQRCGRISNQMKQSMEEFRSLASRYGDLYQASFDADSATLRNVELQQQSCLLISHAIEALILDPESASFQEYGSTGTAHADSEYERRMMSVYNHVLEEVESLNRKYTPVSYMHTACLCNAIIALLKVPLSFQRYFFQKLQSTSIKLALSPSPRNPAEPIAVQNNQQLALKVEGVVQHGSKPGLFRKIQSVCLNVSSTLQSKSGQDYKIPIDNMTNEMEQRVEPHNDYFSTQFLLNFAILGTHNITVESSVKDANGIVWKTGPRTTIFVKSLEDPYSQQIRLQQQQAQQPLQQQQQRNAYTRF
# UniProt P41252, sequence (P41252 whole entry, looked up): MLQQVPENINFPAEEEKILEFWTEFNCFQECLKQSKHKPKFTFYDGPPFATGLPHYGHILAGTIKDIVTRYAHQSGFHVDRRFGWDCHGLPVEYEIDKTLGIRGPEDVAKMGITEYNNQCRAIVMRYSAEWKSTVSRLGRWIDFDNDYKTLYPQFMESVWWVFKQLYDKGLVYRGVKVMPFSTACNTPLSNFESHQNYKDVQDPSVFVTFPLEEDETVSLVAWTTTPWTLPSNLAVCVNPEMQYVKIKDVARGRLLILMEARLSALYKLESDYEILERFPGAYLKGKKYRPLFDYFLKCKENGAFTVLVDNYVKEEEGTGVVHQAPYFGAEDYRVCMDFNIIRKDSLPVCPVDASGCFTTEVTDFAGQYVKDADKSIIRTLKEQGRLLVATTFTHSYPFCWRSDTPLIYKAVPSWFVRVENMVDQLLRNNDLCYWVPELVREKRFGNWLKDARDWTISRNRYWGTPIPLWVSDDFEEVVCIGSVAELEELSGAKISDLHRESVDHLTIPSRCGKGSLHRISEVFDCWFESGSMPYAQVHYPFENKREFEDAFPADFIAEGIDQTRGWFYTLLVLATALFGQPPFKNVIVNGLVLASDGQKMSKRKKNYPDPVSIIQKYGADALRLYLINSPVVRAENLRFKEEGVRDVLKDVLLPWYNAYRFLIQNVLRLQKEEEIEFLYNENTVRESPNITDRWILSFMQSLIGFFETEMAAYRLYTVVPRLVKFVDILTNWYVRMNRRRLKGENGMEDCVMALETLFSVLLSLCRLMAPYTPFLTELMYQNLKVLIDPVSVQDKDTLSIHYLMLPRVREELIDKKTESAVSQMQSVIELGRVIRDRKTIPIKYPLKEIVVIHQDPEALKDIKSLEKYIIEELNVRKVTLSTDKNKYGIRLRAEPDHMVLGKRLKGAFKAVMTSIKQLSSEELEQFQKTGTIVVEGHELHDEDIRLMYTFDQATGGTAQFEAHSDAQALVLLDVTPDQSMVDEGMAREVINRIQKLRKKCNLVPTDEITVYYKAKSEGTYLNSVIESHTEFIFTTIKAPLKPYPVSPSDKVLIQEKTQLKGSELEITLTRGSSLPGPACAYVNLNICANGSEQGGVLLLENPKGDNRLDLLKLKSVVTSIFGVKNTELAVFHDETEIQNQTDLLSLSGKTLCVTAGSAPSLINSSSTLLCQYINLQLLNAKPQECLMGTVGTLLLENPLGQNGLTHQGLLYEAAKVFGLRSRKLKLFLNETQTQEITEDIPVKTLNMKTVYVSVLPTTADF
# UniProt Q9Y616, sequence (Q9Y616 whole entry, looked up): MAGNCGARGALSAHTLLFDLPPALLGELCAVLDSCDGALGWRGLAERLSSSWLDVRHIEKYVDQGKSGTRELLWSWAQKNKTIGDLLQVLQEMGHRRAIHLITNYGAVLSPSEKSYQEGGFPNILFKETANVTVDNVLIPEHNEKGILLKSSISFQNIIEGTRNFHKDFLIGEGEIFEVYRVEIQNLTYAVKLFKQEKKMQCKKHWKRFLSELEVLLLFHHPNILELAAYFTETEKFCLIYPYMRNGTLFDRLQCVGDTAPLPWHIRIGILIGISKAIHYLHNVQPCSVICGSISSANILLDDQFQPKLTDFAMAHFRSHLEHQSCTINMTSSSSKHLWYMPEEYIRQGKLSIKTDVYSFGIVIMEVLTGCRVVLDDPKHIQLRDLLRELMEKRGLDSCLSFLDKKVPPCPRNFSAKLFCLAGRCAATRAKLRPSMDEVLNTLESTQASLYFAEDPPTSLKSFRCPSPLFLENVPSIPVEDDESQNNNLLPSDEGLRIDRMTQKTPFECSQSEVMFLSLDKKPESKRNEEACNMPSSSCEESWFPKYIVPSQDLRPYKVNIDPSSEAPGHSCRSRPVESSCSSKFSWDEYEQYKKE
# UniProt Q02556, sequence (Q02556 whole entry, looked up): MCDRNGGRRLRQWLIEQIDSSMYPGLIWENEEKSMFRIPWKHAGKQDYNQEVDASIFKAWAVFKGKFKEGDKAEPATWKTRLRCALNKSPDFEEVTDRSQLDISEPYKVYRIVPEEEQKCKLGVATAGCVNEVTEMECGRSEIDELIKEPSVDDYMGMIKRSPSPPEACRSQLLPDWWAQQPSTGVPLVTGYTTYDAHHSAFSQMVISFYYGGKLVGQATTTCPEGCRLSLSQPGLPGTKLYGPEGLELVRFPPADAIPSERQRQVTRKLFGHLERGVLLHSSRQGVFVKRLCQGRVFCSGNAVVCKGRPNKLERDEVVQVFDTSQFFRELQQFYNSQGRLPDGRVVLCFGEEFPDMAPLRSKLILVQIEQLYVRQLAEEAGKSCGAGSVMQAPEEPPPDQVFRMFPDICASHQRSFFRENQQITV
# UniProt Q643R3, sequence (Q643R3 whole entry, looked up): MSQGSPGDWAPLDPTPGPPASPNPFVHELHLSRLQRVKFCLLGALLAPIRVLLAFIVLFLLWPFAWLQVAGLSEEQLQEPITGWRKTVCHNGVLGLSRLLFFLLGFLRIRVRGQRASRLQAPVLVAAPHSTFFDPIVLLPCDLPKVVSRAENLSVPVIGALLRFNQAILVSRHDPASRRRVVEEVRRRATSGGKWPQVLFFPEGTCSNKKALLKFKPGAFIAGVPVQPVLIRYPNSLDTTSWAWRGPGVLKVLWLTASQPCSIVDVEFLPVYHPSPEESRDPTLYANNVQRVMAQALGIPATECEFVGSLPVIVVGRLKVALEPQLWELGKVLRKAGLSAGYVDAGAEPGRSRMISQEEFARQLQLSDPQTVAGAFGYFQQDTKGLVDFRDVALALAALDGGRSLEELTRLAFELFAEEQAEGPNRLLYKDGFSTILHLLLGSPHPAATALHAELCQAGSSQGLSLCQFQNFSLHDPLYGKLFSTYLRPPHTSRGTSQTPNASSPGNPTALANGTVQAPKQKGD
# UniProt Q3MHD2, sequence (Q3MHD2 whole entry, looked up): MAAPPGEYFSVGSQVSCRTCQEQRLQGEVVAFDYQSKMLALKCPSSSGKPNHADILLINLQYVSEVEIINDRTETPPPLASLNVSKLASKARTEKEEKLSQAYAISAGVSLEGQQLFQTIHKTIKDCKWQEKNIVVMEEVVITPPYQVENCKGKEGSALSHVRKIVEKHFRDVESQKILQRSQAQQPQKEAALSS
row,Target,probe-labelled cysteine peptide fold change
1,IARS_P41252_526_ISEVFDCWFESGSMPYAQVHYPFENK (UniProt P41252),0.0281
2,INTS7_Q9NVH2_618_GIASLTAASTPLNPLSFQCEFVK (UniProt Q9NVH2),0.23
3,LONP1_P36776_520_ILCFYGPPGVGK (UniProt P36776),-0.00908
4,IRAK3_Q9Y616_572_VNIDPSSEAPGHSCR (UniProt Q9Y616),-0.134
5,LCP1_P13796_336_EKDDIQRAECMLQQAER (UniProt P13796),-0.561

# Same assay, conditions: 50 µM; THP-1; incubation time: 4 h
row,Target,probe-labelled cysteine peptide fold change
1,IFIT3_O14879_73_HLDGNNEAALECLR (UniProt O14879),0.181
2,KIF15_Q9NS87_949_CEQQMAK (UniProt Q9NS87),0.0782
3,KIAA0930_Q6ICG6_269_VSTGDTSPCGTEEDSSPASPMHER (UniProt Q6ICG6),-0.563
4,KDM5B_Q9UGL1_1072_ECAVNTFLTENSPYSLLEVLCPR (UniProt Q9UGL1),0.679
5,IRF8_Q02556_410_MFPDICASHQR (UniProt Q02556),-0.198
6,KMT2C_Q8NEZ4_638_HICGEDQIEDK (UniProt Q8NEZ4),0.0478
7,IFT122_Q9HBG6_14_AEHCINDIAFKPDGTQLILAAGSR (UniProt Q9HBG6),0.0225
8,LCP1_P13796_336_DDIQRAECMLQQAER (UniProt P13796),-0.332
9,KDM2B_Q8NHM5_770_SECEEAPR (UniProt Q8NHM5),0.255
10,KDM2B_Q8NHM5_991_RPPGICERPHR (UniProt Q8NHM5),-0.0661
11,LGALS1_P09382_17_PGECLR (UniProt P09382),1
12,IPO4_Q8TEX9_962_DNICGALAR (UniProt Q8TEX9),0.0509
13,KYNU_Q16719_22_CHPTDER (UniProt Q16719),0.359
14,LARS_Q9P2J5_84_CCLFPFGLHCTGMPIK (UniProt Q9P2J5),-0.0329
15,LDHB_P07195_294_GMYGIENEVFLSLPCILNAR (UniProt P07195),0.0309
16,IDH2_P48735_308_SSGGFVWACK (UniProt P48735),0.106
17,INTS10_Q9NVR2_7_SAQGDCEFLVQR (UniProt Q9NVR2),-0.772
18,LMAN1_P49257_190_NNPAIVIIGNNGQIHYDHQNDGASQALASCQR (UniProt P49257),-0.00596
19,JAK1_P23458_716_DLVHGNVCTK (UniProt P23458),0.053

row,Target,probe-labelled cysteine peptide fold change
1,KIZ_Q2M2Z5_293_CDSSSGSEGEILTR (UniProt Q2M2Z5),-0.285
2,ITGB1_P05556_500_HCECSTDEVNSEDMDAYCR (UniProt P05556),0.15
3,KCTD5_Q9NXV2_6_AENHCELLSPAR (UniProt Q9NXV2),-0.666
4,ITGA7_Q13683_539+546_SIDLEQPNCAGGHSVCVDLR (UniProt Q13683),-0.672
5,KLC1_Q07866_236_YEVAVPLCK (UniProt Q07866),0.0881
6,LSM12_Q3MHD2_20_TCQEQR (UniProt Q3MHD2),1
7,LIMA1_Q9UHB6_414_LLANQQVFHISCFR (UniProt Q9UHB6),-0.206
8,KLHL30_Q0D2K2_231_AAHLPELLSLVHLDAVPRPCVQQLLASEPLIQESEACR (UniProt Q0D2K2),-0.645
9,ITGB1_P05556_574_SNGLICGGNGVCK (UniProt P05556),0.00706
10,LRPPRC_P42704_571_YCQEPR (UniProt P42704),0.545
11,KIF14_Q15058_850_YKPNSSHDIQLSGVLIADDHCTIK (UniProt Q15058),0.0189
12,ITPRIP_Q8IWB1_268_LGEDMLCLLHGR (UniProt Q8IWB1),-0.0849
13,LPCAT4_Q643R3_206_WPQVLFFPEGTCSNKK (UniProt Q643R3),-0.0279
14,IFI16_Q16666_351_MDVVGTGQCHNIPCEEGDK (UniProt Q16666),0.141
15,IARS_P41252_526_ISEVFDCWFESGSMPYAQVHYPFENK (UniProt P41252),0.112
16,INTS7_Q9NVH2_618_GIASLTAASTPLNPLSFQCEFVK (UniProt Q9NVH2),0.0121
17,LONP1_P36776_520_ILCFYGPPGVGK (UniProt P36776),-0.0802
18,IRAK3_Q9Y616_572_VNIDPSSEAPGHSCR (UniProt Q9Y616),-0.243
19,LCP1_P13796_336_EKDDIQRAECMLQQAER (UniProt P13796),-0.237
